From PubChem BioAssay AID1671193 (National Center for Advancing Translational Sciences (NCATS), 2021)
Out of some 150,000 compounds screened, about 180 (0.12%) were called active. Inconclusive means that the source gave no clear call. Such entries were picked first, then a sample of the others. The call rests on the fitted dose curve; in most records, active means well fitted cell-killing curve with a large enough effect; inconclusive means small, poorly fitted or top-dose-only effect, or effect the other way; inactive means flat fitted curve, though single readings scatter. A potency beside an inconclusive call is a rough fit, not a confirmed value.

Assay: GF-AFC viability counterscreen for inhibitors of alpha-synuclein gene (SNCA) expression; further: nearly all actives have a fitted effect of over 30% in size
Conditions: HEK-293-SNCA-luc viability, GF-AFC fluorescence, 24 h; series mostly up to 57.1 µM
Summary of the method: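 Cytotoxicity counterscreen: after 24 h compound treatment of genome-edited SNCA-luciferase HEK-293 cells, live-cell protease substrate GF-AFC read by fluorescence after 30 min; activity scaled between DMSO (0%) and medium-only (-100%), curves Hill-fitted.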
Potency means the concentration at half of the fitted maximal effect; tags describe the fitted curve by direction and shape.

SMILES	Potency
Cc1ccc2oc([C@H]3CCN(C(=O)C4CC4)C3)nc2c1	inactive
CCOc1cccc(NC(=O)C2CC(=O)N(C)C(=Nc3ccc(OC)cc3)S2)c1 (stereo not drawn)	inactive
c1ccc(Nc2cc3c(cn2)NCCN(Cc2ccsc2)C3)cc1	inactive
CN(Cc1ccc(F)cc1)c1ccc2ncc(Nc3ccncc3)n2n1	inactive
COc1cccc(CC(=O)N2CCCn3nc(C)c(-c4ccccc4C(C)C)c32)c1	inconclusive: 28.2 µM [cytotoxic, partial curve, poor fit]
O=C(Nc1ccc(=O)n2c1[C@@H]1C[C@@H](CN(S(=O)(=O)c3ccccc3)C1)C2)c1ccc2c(c1)OCO2	inconclusive: 10 µM [cytotoxic, partial curve]
COc1ccc(CCNC(=O)c2cc(-c3ccc(OC)cc3)nc3c2cnn3C)cc1	inactive
Cn1cc(-c2nc3cncnc3n(CCN)c2=O)c2ccccc21	inconclusive: 14.1 µM [rising, partial curve, poor fit]
COc1ccccc1-c1cnc(Nc2cccc(N[S+](C)(=O)[O-])c2)c2c1CCO2	inconclusive: 31.6 µM [cytotoxic, single point]
O=C(c1ccc(Cl)cc1)N1CC2(CCN(CC3CC3)CC2)Cc2ccccc21	inconclusive: 39.8 µM [cytotoxic, partial curve, poor fit]
COc1ccc(NC(=O)O[C@@H]2CC[C@]3(C)C(CC[C@@H](O)[C@H]3CC(=O)NCc3ccc4c(c3)OCO4)[C@]2(C)CO)cc1 (stereo partly drawn)	inactive
C=C1C(=O)OC2CC(C)C(CCC(C)O)=CCC12 (stereo not drawn)	inconclusive: 8.44 µM [cytotoxic, single point]
Cc1noc([C@H]2CCN(S(=O)(=O)Cc3ccccc3)C[C@H]2NC(=O)C2CC2)n1	inconclusive: 15.8 µM [rising, partial curve, poor fit]
CN1CC(=O)N(C2CCCNCC2)Cc2c1ncnc2N1CCNC(=O)C1 (stereo not drawn)	inactive
COc1ccc(-c2c(C)c3ccc(O)c(CN4CCCC4)c3oc2=O)cc1	inconclusive: 31.6 µM [rising, partial curve]
COc1ccc(CN2C[C@H]3CN(Cc4ccc(S(C)(=O)=O)cc4)CCN3C2=O)cc1	inactive
Cc1ccc(C)c(C(=O)NC2CCN(c3cc(-c4ccc(F)cc4)[nH]n3)C2)c1 (stereo not drawn)	inactive
Cc1noc([C@H]2CCN(Cc3cc(F)cc(F)c3)C[C@H]2NC(=O)C2CC2)n1	inactive
CC(=O)Nc1ccc(NC(=O)c2cc(-c3ccc4c(c3)OCCO4)on2)cc1	inactive
COc1cc(OC)cc(C(=O)N2CCCC(n3cc(-c4nc(-c5ccccc5)no4)nn3)C2)c1 (stereo not drawn)	inconclusive: 39.8 µM [cytotoxic, single point]
OCC1(Cc2ccc(F)cc2F)CCCN(c2cnc3ccccc3n2)C1 (stereo not drawn)	inconclusive: 28.2 µM [cytotoxic, single point]
Cc1c(Cl)cccc1NC(=O)Nc1ccc2snnc2c1	inconclusive: 25.1 µM [cytotoxic, single point]
CC(=O)Nc1ccc(CN2CCN(c3cc(Cl)ncn3)C(=O)C2)cc1	inactive

SMILES	Potency
CN(C)c1ccc(-c2nc(NCc3cccnc3)c3ccccc3n2)cc1	inconclusive: 14.1 µM [cytotoxic, partial curve]
Cc1ccnc(CC(C)N(C)C(=O)c2cc(-c3cnn(C)c3)nc3ccccc23)c1 (stereo not drawn)	inactive
COc1ccc(C(=O)NCc2nnc3ccc(-c4ccc(F)cc4)nn23)c(OC)n1	inconclusive: 10 µM [cytotoxic, partial curve, poor fit]
COc1ccc(C(=O)N2CCC(c3nn(-c4ccccc4)c(=O)[nH]3)CC2)cc1	inactive
COc1ccc(Cn2c(=O)c(C(=O)NCc3ccc(Cl)cc3)nc3cccnc32)cc1	inactive
Cc1cccc(NC(=O)Nc2ccc(F)cc2)n1	inactive
CN(Cc1ccc(-c2ccccc2)cc1)CC1CC1	inactive
CCOC(=O)c1cnc2c(C)c(Cl)ccc2c1NCCc1ccc(OC)c(OC)c1	inconclusive: 22.4 µM [cytotoxic, partial curve, poor fit]
COCCC(=O)N1CC(c2nnc(-c3ccc(C)cc3)o2)C2(CCOCC2)C1 (stereo not drawn)	inactive
COCC(=O)NC[C@@H]1C=C(C)[C@H](Cc2nc3ccc(Cl)cc3[nH]2)C[C@H]1C(C)C	inconclusive: 22.4 µM [cytotoxic, partial curve]
Cc1cccc(OCC(=O)c2ccc3c(c2)N(CC(=O)Nc2ccccc2)C(=O)CO3)c1	inconclusive: 3.55 µM [cytotoxic, full curve, poor fit]
COCCNc1ncc(-c2ccsc2)c2c1OCC2	inactive
O=[S+]1([O-])NC2(CCN(CC3CCCC3)CC2)COc2ccccc21	inactive
O=C(Cc1cccc(Cl)c1)N1CCC2(CC1)COc1ccccc1[S+](=O)([O-])N2	inconclusive: 22.4 µM [cytotoxic, partial curve, poor fit]
O=C1CCCN1CC(=O)N1CCC(C2CCN(Cc3cccc(F)c3F)CC2)C1 (stereo not drawn)	inconclusive: 22.4 µM [cytotoxic, partial curve, poor fit]
Cc1ccc(NC(=O)N2CC(C(=O)N(C)C)C3(CCOCC3)C2)cc1 (stereo not drawn)	inconclusive: 39.8 µM [cytotoxic, single point]
O=C(CCc1ccnc(N2CCOCC2)c1)NCc1cnccn1	inconclusive: 8.91 µM [cytotoxic, single point]
CN(Cc1ccc(-c2ccccc2)cc1)Cc1nccs1	inactive
COc1cccc(CNC(=O)c2ccc3nnc(-c4cc(C(F)(F)F)cc(C(F)(F)F)c4)n3c2)c1	inactive
COc1cccc(-c2cn3cc(C(=O)N4CCOCC4)nc3s2)c1	inconclusive: 3.55 µM [cytotoxic, single point]
COc1ccccc1NC(=O)Nc1cccc(-c2ccc(N3CCOCC3)nn2)c1	inactive
COc1nc2nc(CCc3ccccc3)n(C)c2cc1-c1cccc(NC(C)=O)c1	inconclusive: 28.2 µM [cytotoxic, single point]
COc1cc2c(=O)c(C(=O)c3ccc(C)c(C)c3)cn(Cc3ccccc3F)c2cc1OC	inconclusive: 5.01 µM [cytotoxic, full curve, poor fit]

SMILES	Potency
COCCc1noc([C@@H]2CN(CC(C)C)C[C@H]2CO)n1	inconclusive: 0.708 µM [cytotoxic, full curve, poor fit]
O=C(c1ccc2cc[nH]c2c1)N1CCN(C(=O)c2nnn3c2COC(c2ccc(Cl)cc2)C3)CC1 (stereo not drawn)	inactive
Cn1c(=O)c(CCc2ccccc2)nc2cnc(N3CCOCC3)nc21	inconclusive: 3.55 µM [cytotoxic, single point]
COc1ccc(NC(=O)Cn2c(-c3ccc(Cl)cc3)nc(C)c(CCO)c2=O)cc1	inactive
O=C1OC2(c3ccc(O)cc3Oc3cc(O)ccc32)c2ccccc21	inconclusive: 15.8 µM [rising, single point]
CCOC(=O)c1c(C)n(-c2ccccc2)c2ccc(OC(=O)c3ccccc3NC(=O)C(C)C)cc12	inconclusive: 39.8 µM [cytotoxic, single point]
COc1ccc2[nH]cc(CCNc3ccnc(-c4ccc5c(c4)OCO5)n3)c2c1	inconclusive: 2.82 µM [cytotoxic, full curve, poor fit]
COc1ccc(C(=O)N[C@@H]2CN(C(=O)NCc3ccccc3)CCC[C@H]2O)cc1	inconclusive: 35.5 µM [cytotoxic, single point]
CCn1c(=O)c2c(cc(C)n2C)n(CC(=O)Nc2c(C)cccc2C)c1=O	active: 28.2 µM
Cc1ccc(-c2cn3c(n2)sc2cc(C(=O)NCCCN4CCCCC4)ccc23)cc1	active: 25.1 µM
COc1ccc(C(=O)Nc2cc(-c3cccc(C)c3)nn2-c2ccccc2)cc1	inconclusive: 3.98 µM [cytotoxic, full curve, poor fit]
COc1cccc(OCC(=O)c2ccc3c(c2)N(C(C)C(=O)NCCc2ccccc2)C(=O)CO3)c1 (stereo not drawn)	inconclusive: 17.8 µM [cytotoxic, partial curve, poor fit]
C=Cc1ccc(Cn2c(C(=O)O)c(CNCc3cccs3)c3ccc(C)cc32)cc1	inconclusive: 22.4 µM [cytotoxic, partial curve, poor fit]
COc1ccccc1C(=O)Nc1c(C(=O)N(CCN(C)C)Cc2ccco2)oc2ccccc12	inconclusive: 39.8 µM [cytotoxic, single point]
Cc1noc2c(-c3cccnc3NC3CCN(C)CC3)cc(-c3ccc(Cl)cc3)nc12	inactive
CC(=O)c1ccc(N2CCN(S(=O)(=O)c3ccc4c(c3)CC(C)N4C(=O)C3CCC3)CC2)cc1 (stereo not drawn)	inactive
CC(=O)N1CCC(C(=O)NCC(=O)N2CCCCCNC(=O)CC2c2ccccc2)CC1 (stereo not drawn)	inconclusive: 3.55 µM [cytotoxic, single point]
COc1cccc(C(=O)Nc2ccc(Cl)c(-c3nc4ccccc4[nH]3)c2)c1	inconclusive: 28.2 µM [cytotoxic, single point]
COc1ccc(C(=O)N2CCCC2C(=O)N2CCC(c3nc4ccncc4[nH]3)CC2)cc1 (stereo not drawn)	inactive
Cc1cccc(-c2noc([C@@H]3Cc4nc[nH]c4CN3C(=O)Nc3cccc(F)c3)n2)c1	inconclusive: 28.2 µM [cytotoxic, partial curve, poor fit]
CCCCN1CC(c2nc3ccccc3n2CCCCOc2ccc(C)cc2C)CC1=O (stereo not drawn)	inconclusive: 39.8 µM [cytotoxic, single point]
CN(C)C(=O)N1CCCC1C(=O)N1CCC(N2CCOCC2=O)CC1 (stereo not drawn)	inactive
